For one test, the system named is HSkMC. Briefly: cytotoxicity call (relative viability < 0.9). As to conditions: 10 µM.
In the next test the test system is HepG2. Briefly: cytotoxicity call (relative viability < 0.9). The conditions noted are these: 10 µM.
The subject of another test is S. aureus RN4220. Briefly: growth inhibition call (relative growth <= 0.2). As to conditions: 50 µM.

Structures are written as SMILES. The list shows a part of the results.

Consider `C[C@]1(C(=O)NCc2ccccc2)c2ccccc2C(=O)N(Cc2ccccc2)[C@H]1c1ccc(COC(=O)NCCCCCC(=O)NO)cc1`, for which the cytotoxicity call with HSkMC and with HepG2 was “inactive” each time. Further, the growth inhibition call with S. aureus RN4220 was “inactive”.

For `C[C@H](CO)N1C[C@H](C)[C@@H](CN(C)Cc2ccc3c(c2)OCO3)Oc2ccc(NS(C)(=O)=O)cc2C1=O`, the cytotoxicity call with HSkMC and in the test with HepG2 was “inactive” each time. Moreover, in the test with S. aureus RN4220, the growth inhibition call is “inactive”.

Turning to `C[C@@H]1CCCCO[C@H](CN(C)C(=O)Nc2ccc3c(c2)OCO3)[C@H](C)CN([C@@H](C)CO)C(=O)c2cc(NS(=O)(=O)c3cccs3)ccc2O1`, the cytotoxicity call in the test on HSkMC and in the test with HepG2 was “inactive” throughout. Further, the growth inhibition call in the test with S. aureus RN4220 is “inactive”.

As to `C[C@H](CO)N1C[C@H](C)[C@@H](CN(C)C(=O)Nc2ccccc2)Oc2c(NC(=O)CCCCCC(=O)Nc3ccccc3N)cccc2C1=O`, the cytotoxicity call with HSkMC and in the test with HepG2 was “inactive” in each case. The growth inhibition call in the test on S. aureus RN4220 is “inactive”.

With `O=C(O)CCn1ccnc1`, the cytotoxicity call in the test with HSkMC and in the test on HepG2 was “inactive” each time. Also, in the test on S. aureus RN4220, the growth inhibition call was “inactive”.

For the compound `C[C@H]1CN([C@@H](C)CO)S(=O)(=O)c2ccc(Br)cc2O[C@H]1CN(C)C(=O)c1cccnc1`, the cytotoxicity call in the test on HSkMC and in the test with HepG2 was “inactive” each time. Also, the growth inhibition call with S. aureus RN4220 is “inactive”.

As to `C[C@@H]1CN([C@@H](C)CO)C(=O)Cc2cc(NC(=O)CCCN(C)C)ccc2O[C@@H]1CN(C)S(=O)(=O)c1ccc(F)cc1`, the cytotoxicity call with HSkMC and with HepG2 was “inactive” in each case. The growth inhibition call in the test with S. aureus RN4220 was “inactive”.

For the compound `NC(=CS(=O)(=O)Cc1ccc(F)cc1)NO`, the cytotoxicity call in the test with HSkMC was “inactive”. Further, the cytotoxicity call in the test on HepG2 was “active”. In the test with S. aureus RN4220, the growth inhibition call is “inactive”.

On to `C[C@@H]1CN([C@@H](C)CO)C(=O)c2cc(C#CCN(C)C)cnc2O[C@H]1CN(C)C(=O)c1cnccn1`, for which the cytotoxicity call in the test with HSkMC and with HepG2 was “inactive” throughout. Besides, the growth inhibition call in the test with S. aureus RN4220 was “inactive”.

With `Cc1noc(C)c1S(=O)(=O)N(C)C[C@H]1Oc2c(NC(=O)C3CC3)cccc2C(=O)N([C@H](C)CO)C[C@H]1C`, the cytotoxicity call in the test on HSkMC and in the test with HepG2 was “inactive” each time. Besides, the growth inhibition call with S. aureus RN4220 was “inactive”.

For the compound `COc1ccc(S(=O)(=O)Nc2ccc3c(c2)C(=O)N([C@H](C)CO)C[C@H](C)[C@@H](CN(C)CC2CCCCC2)OCCCC[C@H](C)O3)cc1`, the cytotoxicity call in the test on HSkMC and in the test with HepG2 was “inactive” throughout. The growth inhibition call with S. aureus RN4220 is “inactive”.

Turning to `C[C@@H]1CN([C@H](C)CO)C(=O)c2cc(NS(=O)(=O)c3cn(C)cn3)ccc2O[C@H]1CN(C)C(=O)Nc1ccccc1`, the cytotoxicity call with HSkMC and in the test on HepG2 was “inactive” each time. Also, the growth inhibition call in the test with S. aureus RN4220 was “inactive”.

On to `C[C@@H]1CN([C@@H](C)CO)C(=O)c2cccc(NC(=O)c3ccc(-c4nccs4)cc3)c2O[C@@H]1CN(C)Cc1ccccc1`, for which the cytotoxicity call in the test with HSkMC and in the test with HepG2 was “inactive” throughout. Moreover, in the test with S. aureus RN4220, the growth inhibition call was “inactive”.

Take `C[C@@H]1CN([C@@H](C)CO)C(=O)c2c(c3ccccc3n2C)-c2ccccc2CO[C@@H]1CN(C)Cc1ccc(Oc2ccccc2)cc1`: the cytotoxicity call in the test with HSkMC and with HepG2 was “inactive” in each case. The growth inhibition call in the test on S. aureus RN4220 is “inactive”.

For the compound `C[C@H](CO)N1C[C@H](C)[C@@H](CN(C)C(=O)Nc2ccccc2)OCCCC[C@H](C)Oc2ccc(NC(=O)Nc3ccc(F)cc3)cc2C1=O`, the cytotoxicity call in the test on HSkMC and in the test on HepG2 was “inactive” throughout. The growth inhibition call with S. aureus RN4220 was “inactive”.

For `COc1cccc(S(=O)(=O)N(C)C[C@@H]2Oc3cc(C#CCN(C)C)ccc3S(=O)(=O)N([C@H](C)CO)C[C@@H]2C)c1`, the cytotoxicity call with HSkMC and with HepG2 was “inactive” each time. For the same compound, the growth inhibition call in the test on S. aureus RN4220 was “inactive”.

Take `C[C@@H]1CCCCO[C@H](CN(C)Cc2ccc3c(c2)OCO3)[C@H](C)CN([C@@H](C)CO)C(=O)c2cc(NC(=O)Cc3ccccc3)ccc2O1`: the cytotoxicity call in the test on HSkMC and in the test with HepG2 was “inactive” throughout. The growth inhibition call with S. aureus RN4220 is “inactive”.

Consider `CCOc1ccc(-n2c([C@@H](C)N(Cc3cccnc3)C(=O)Cc3ccc(OC(F)(F)F)cc3)nc3ncccc3c2=O)cc1`, for which the cytotoxicity call in the test on HSkMC and with HepG2 was “inactive” in each case. Moreover, the growth inhibition call in the test with S. aureus RN4220 was “inactive”.

With `Cc1ccc(S(=O)(=O)Nc2ccc3c(c2)CC(=O)N([C@H](C)CO)C[C@H](C)[C@@H](CN(C)S(=O)(=O)c2cn(C)cn2)O3)cc1`, the cytotoxicity call with HSkMC and in the test with HepG2 was “inactive” in each case. In the test on S. aureus RN4220, the growth inhibition call is “inactive”.

As for `Cn1c(=O)n(C)c2cc(CO)ccc21`, the cytotoxicity call with HSkMC and with HepG2 was “inactive” throughout. For the same compound, the growth inhibition call in the test with S. aureus RN4220 was “inactive”.

As to `Cc1noc(C)c1NC(=O)Nc1ccc2c(c1)C(=O)N([C@H](C)CO)C[C@H](C)[C@@H](CN(C)Cc1ccc(Oc3ccccc3)cc1)O2`, the cytotoxicity call in the test on HSkMC and in the test on HepG2 was “inactive” in each case. Also, the growth inhibition call in the test with S. aureus RN4220 is “inactive”.

`C[C@@H]1CN([C@@H](C)CO)C(=O)c2cc(NC(=O)NC3CCCCC3)ccc2O[C@@H](C)CCCCO[C@H]1CN(C)Cc1ccc(C(=O)O)cc1`: the cytotoxicity call with HSkMC and in the test on HepG2 was “inactive” throughout. For the same compound, the growth inhibition call with S. aureus RN4220 is “inactive”.

`CC[C@H]1CN(C)N1C(=O)[C@H]1CCCO1`: the cytotoxicity call in the test with HSkMC and in the test on HepG2 was “inactive” each time. Besides, in the test on S. aureus RN4220, the growth inhibition call was “inactive”.

Regarding `COc1ccc(S(=O)(=O)Nc2ccc3c(c2)CC(=O)N([C@@H](C)CO)C[C@H](C)[C@@H](CN(C)S(=O)(=O)c2c(C)noc2C)O3)cc1`, the cytotoxicity call in the test on HSkMC and with HepG2 was “inactive” in each case. The growth inhibition call in the test with S. aureus RN4220 was “inactive”.

As for `C[C@@H]1CCCCO[C@@H](CN(C)C(=O)Cc2ccccc2)[C@H](C)CN([C@@H](C)CO)C(=O)c2cc(NS(=O)(=O)c3ccc(Cl)cc3)ccc2O1`, the cytotoxicity call with HSkMC and in the test with HepG2 was “inactive” in each case. Besides, in the test on S. aureus RN4220, the growth inhibition call was “inactive”.

For `C[C@H]1CN([C@@H](C)CO)C(=O)Cc2cc(NC(=O)Nc3cccc4ccccc34)ccc2O[C@@H]1CN(C)Cc1ccc(C(=O)O)cc1`, the cytotoxicity call in the test on HSkMC and in the test on HepG2 was “inactive” each time. In addition, the growth inhibition call in the test on S. aureus RN4220 is “inactive”.

As to `O=C(C[C@@H]1C[C@H]2c3cc(NC(=O)NC4CCCC4)ccc3O[C@H]2[C@H](CO)O1)NCc1ccc(Oc2ccccc2)cc1`, the cytotoxicity call in the test on HSkMC and in the test with HepG2 was “inactive” each time. In the test on S. aureus RN4220, the growth inhibition call was “inactive”.

Regarding `C[C@@H]1CN([C@@H](C)CO)C(=O)c2cccc(NS(=O)(=O)c3cn(C)cn3)c2O[C@@H]1CN(C)C(=O)Nc1ccccc1`, the cytotoxicity call with HSkMC and in the test on HepG2 was “inactive” throughout. Further, in the test with S. aureus RN4220, the growth inhibition call is “inactive”.

Take `CCCNC(=O)N(C)C[C@@H]1Oc2cc(-c3ccccc3F)ccc2S(=O)(=O)N([C@H](C)CO)C[C@H]1C`: the cytotoxicity call in the test on HSkMC and in the test on HepG2 was “inactive” each time. The growth inhibition call in the test with S. aureus RN4220 was “inactive”.

Take `COc1ccc(-c2cc(=O)c3c(O)cc(O[C@@H]4O[C@H](CO[C@H]5O[C@H](C)[C@@H](O)[C@H](O)[C@@H]5O)[C@@H](O)[C@H](O)[C@H]4O)cc3o2)cc1O`: the cytotoxicity call in the test with HSkMC and in the test on HepG2 was “inactive” throughout. In addition, the growth inhibition call with S. aureus RN4220 was “inactive”.

`Cc1noc(C)c1NC(=O)Nc1ccc2c(c1)C(=O)N([C@@H](C)CO)C[C@H](C)[C@H](CN(C)Cc1ccc3c(c1)OCO3)OCCCC[C@H](C)O2`: the cytotoxicity call in the test with HSkMC and with HepG2 was “inactive” throughout. For the same compound, the growth inhibition call with S. aureus RN4220 is “inactive”.

For the compound `CN(C)Cc1cn(CC[C@@H]2CC[C@H](NS(=O)(=O)c3ccccc3)[C@H](CO)O2)nn1`, the cytotoxicity call in the test on HSkMC and in the test on HepG2 was “inactive” in each case. Moreover, in the test on S. aureus RN4220, the growth inhibition call was “inactive”.

In the case of `C[C@H]1CN([C@@H](C)CO)C(=O)c2cc(NC(=O)Nc3ccc4c(c3)OCO4)ccc2O[C@H]1CN(C)Cc1ccc(Cl)c(Cl)c1`, the cytotoxicity call with HSkMC and in the test on HepG2 was “inactive” in each case. In the test on S. aureus RN4220, the growth inhibition call was “inactive”.

As for `C[C@H](CO)N1C[C@H](C)[C@@H](CN(C)C(=O)Nc2ccc(C(F)(F)F)cc2)OCCCC[C@H](C)Oc2ccc(NC(=O)Nc3ccc(C(F)(F)F)cc3)cc2C1=O`, the cytotoxicity call in the test with HSkMC and with HepG2 was “inactive” in each case. In addition, in the test with S. aureus RN4220, the growth inhibition call was “inactive”.

As to `Cc1noc(C)c1S(=O)(=O)N(C)C[C@@H]1OCCCC[C@@H](C)Oc2ccc(NC(=O)Nc3ccccc3)cc2C(=O)N([C@@H](C)CO)C[C@H]1C`, the cytotoxicity call with HSkMC and in the test on HepG2 was “inactive” throughout. In addition, the growth inhibition call in the test with S. aureus RN4220 is “inactive”.

As to `Cc1ccc(S(=O)(=O)Nc2cccc3c2O[C@@H](CN(C)S(=O)(=O)c2cccs2)[C@@H](C)CN([C@@H](C)CO)C3=O)cc1`, the cytotoxicity call in the test with HSkMC and with HepG2 was “inactive” throughout. Moreover, the growth inhibition call with S. aureus RN4220 is “inactive”.

Take `O=C(C[C@H]1C=C[C@H](NC(=O)Nc2cc(F)ccc2F)[C@@H](CO)O1)NCCCN1CCOCC1`: the cytotoxicity call in the test on HSkMC and in the test with HepG2 was “inactive” throughout. Besides, the growth inhibition call in the test on S. aureus RN4220 was “inactive”.

Regarding `COCC(=O)Nc1ccc2c(c1)C(=O)N(C)[C@H]1CC[C@@H](CC(=O)N3CCc4ccccc4C3)O[C@H]1CO2`, the cytotoxicity call with HSkMC and in the test on HepG2 was “inactive” in each case. In the test on S. aureus RN4220, the growth inhibition call was “inactive”.

With `CC(C)(C)c1ccc2c(c1)O[C@H](C(=O)N/N=C/c1ccc[nH]1)CO2.CC(C)(C)c1ccc2c(c1)O[C@H](C(=O)N/N=C\c1ccc[nH]1)CO2`, the cytotoxicity call in the test with HSkMC and in the test on HepG2 was “inactive” in each case. Also, the growth inhibition call with S. aureus RN4220 was “inactive”.

`C[C@@H]1CCCCO[C@H](CN(C)S(=O)(=O)c2ccc(Cl)cc2)[C@H](C)CN([C@H](C)CO)C(=O)c2cc(NC(=O)c3ccncc3)ccc2O1`: the cytotoxicity call with HSkMC and in the test with HepG2 was “inactive” throughout. Further, in the test on S. aureus RN4220, the growth inhibition call is “inactive”.

On to `C[C@@H]1CN([C@@H](C)CO)C(=O)c2cccc(NC(=O)C3CCOCC3)c2O[C@@H]1CN(C)S(=O)(=O)c1ccc(F)cc1`, for which the cytotoxicity call in the test on HSkMC (human skeletal muscle cells) and with HepG2 was “inactive” each time. Besides, the growth inhibition call in the test on S. aureus RN4220 was “inactive”.

With `C[C@@H]1CN([C@@H](C)CO)C(=O)c2cccc(NC(=O)C3CC3)c2O[C@H]1CN(C)S(=O)(=O)c1ccc(Cl)cc1`, the cytotoxicity call in the test with HSkMC and in the test on HepG2 was “inactive” in each case. Besides, in the test on S. aureus RN4220, the growth inhibition call was “inactive”.

The values are drawn from the antibiotic and cytotoxicity screens of Wong et al. (2023).
